Source: PubChem BioAssay (Tox21)
This list was built around the results that the source calls inconclusive (neither active nor inactive); the mix of calls is not that of the screen. Potencies beside an inconclusive call are fits to weak or partial responses and may not hold up. More than one record can exist for a structure, and the calls need not agree. The source made the active and inactive calls. Unless noted, the call rests on the fitted dose curve; in most records, active means well fitted cell-killing curve with a large enough effect in the repeat runs; inconclusive means weak or mixed curves, or effect the other way; inactive means no such curve, though single readings can be large or run the other way.

Biological target: Glucocorticoid receptor (Homo sapiens) (UniProt P04150)
Test: qHTS assay to identify small molecule antagonists of the glucocorticoid receptor (GR) signaling pathway (AID 720692; active means well fitted inhibition curve with a large enough effect in the signal ratio in the repeat runs, not every such curve was filed as active; inconclusive means weak or mixed curves, or effect the other way; inactive means no such curve, though single readings can be large or run the other way; the % refers to the signal ratio)
Conditions: GR-bla HeLa, beta-lactamase FRET ratio, dexamethasone-stimulated, 18 h; activity change, negative = inhibition: at 58.5 µM (top of the series) unless noted
Summary of the method: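 Fluorescence from cleaved LiveBLAzer B/G FRET substrate reports GRE-driven beta-lactamase in HeLa cells; compounds are tested against 5 nM dexamethasone (final) over 18 h at 37 C, substrate incubation 2 h at room temperature.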
On the % scale 0 is the no-effect control and ±100 the full control effect; potency means the concentration at half of the fitted maximal effect; tags describe the fitted curve by direction and shape or compound fluorescence and quenching.

Sequence of UniProt P04150 (P04150 whole entry, looked up): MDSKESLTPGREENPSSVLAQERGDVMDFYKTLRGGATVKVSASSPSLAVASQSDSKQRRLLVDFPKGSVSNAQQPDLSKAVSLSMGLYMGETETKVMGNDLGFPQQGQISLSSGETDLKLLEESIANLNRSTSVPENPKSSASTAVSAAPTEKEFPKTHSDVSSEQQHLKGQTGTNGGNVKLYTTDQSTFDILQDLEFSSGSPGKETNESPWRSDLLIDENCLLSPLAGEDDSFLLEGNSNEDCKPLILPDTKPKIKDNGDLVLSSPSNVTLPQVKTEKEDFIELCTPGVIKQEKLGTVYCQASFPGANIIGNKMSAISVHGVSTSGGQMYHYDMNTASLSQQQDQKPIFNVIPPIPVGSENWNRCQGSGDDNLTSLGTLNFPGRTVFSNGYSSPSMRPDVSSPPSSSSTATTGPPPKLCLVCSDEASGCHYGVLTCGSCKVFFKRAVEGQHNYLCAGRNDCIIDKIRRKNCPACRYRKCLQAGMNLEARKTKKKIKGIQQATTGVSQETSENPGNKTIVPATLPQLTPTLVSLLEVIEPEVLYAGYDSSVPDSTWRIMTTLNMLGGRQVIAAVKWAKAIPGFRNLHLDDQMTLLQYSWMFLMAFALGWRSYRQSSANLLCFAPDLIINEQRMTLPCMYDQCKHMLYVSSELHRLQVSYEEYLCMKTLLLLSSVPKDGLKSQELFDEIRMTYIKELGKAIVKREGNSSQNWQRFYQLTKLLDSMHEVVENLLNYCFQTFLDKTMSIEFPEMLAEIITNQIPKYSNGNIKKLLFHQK

| SMILES | activity change, negative = inhibition | Potency |
| --- | --- | --- |
| CON(C)C(=O)Nc1ccc(Cl)cc1 | inconclusive: 31.9% [activator] | – |
| Nc1cc(Cl)ccc1Cl | inactive: 9.36% | – |
| CS(=O)(=O)c1cc(C(F)(F)F)ccc1C(=O)c1cnoc1C1CC1 | inactive: -0.0644% | – |
| c1ccc2c(c1)sc1ccccc12 | inconclusive: 9.99% | – |
| CCSCc1ccccc1OC(=O)NC | inconclusive: 7.84% | – |
| CCOCCOC(C)=O | inconclusive: 19.3% | – |
| CN(C)C(=O)Nc1ccc(Cl)cc1 | inconclusive: 10.9% | – |
| CCOC(=O)CBr | inconclusive: 2.08% [at 78.9 µM] | – |
| CCC(COC(=O)c1cc(OC)c(OC)c(OC)c1)(c1ccccc1)N(C)C (stereo not given) | inactive: 3.87% | – |
| FC(F)(F)c1cccc(C2=CCN(CCc3ccc4ccccc4c3)CC2)c1 | inactive: 6.92% | – |
| Cc1ccccc1CCl | inconclusive: 28.2% | – |
| C1CCC2CCCCC2C1 (stereo not given) | – | inconclusive: 63.9 µM [activator, single point] |
| O=NN1CCCC1 | – | inactive |
| C=CC[C@]1(O)CC[C@H]2[C@@H]3CCC4=CC(=O)CCC4=C3C=C[C@@]21C | – | active: 0.301 µM |
| Oc1ccc2[nH]cc(CCCCN3CC=C(c4ccccc4)CC3)c2c1 | inconclusive: 35.8% | – |
| Cc1cc(C(F)(C(F)(F)F)C(F)(F)F)ccc1NC(=O)c1cccc(I)c1C(=O)NC(C)(C)CS(C)(=O)=O | inconclusive: 15% | – |
| Oc1ccc(Cl)c(Cl)c1Cl | inactive: 17.1% [at 78.9 µM] | – |
| COc1nn(CSP(=S)(OC)OC)c(=O)s1 | – | inconclusive: 61.6 µM [cytotoxic] |
| O=Cc1ccc(Cl)cc1Cl | – | inconclusive: 9.84 µM [activator, single point] |
| Nc1nc(=S)[nH][nH]1 | inconclusive: 33% | – |
| O=C(CCl)Nc1ccccc1 | – | inconclusive: 61.6 µM [inhibitor] |
| S=C=Nc1ccccc1 | inactive: -0.658% [at 78.9 µM] | – |
| Oc1cccc(Cl)c1Cl | inactive: 3.66% [at 78.9 µM] | – |
| CN1[C@@H]2CC[C@H]1CC(OC(=O)c1cc(Cl)cc(Cl)c1)C2 (stereo not given in full) | inconclusive: 15.9% | – |
| O=C(O)C(Cl)Br (stereo not given) | inconclusive: -7.13% [at 78.9 µM] | – |
| O=NN(c1ccccc1)c1ccccc1 | inconclusive: 2.06% | – |
| O=C1CCCCC1Cl (stereo not given) | inconclusive: 13% [at 78.9 µM] | – |
| CNC(=O)Oc1cccc2c1OC(C)(C)C2 | – | inactive |
| Clc1ccc(Cl)cc1 | – | inactive |

Test system: not listed separately
Test: qHTS assay to identify small molecule antagonists of the glucocorticoid receptor (GR) signaling pathway - cell viability counter screen (AID 720693); further: nearly all actives have a fitted effect of over 55% in size
Conditions: GR-bla HeLa viability, CellTiter-Glo luminescence, 18 h, with 5 nM dexamethasone present; viability change, negative = cytotoxic: at 58.5 µM (top of the series) unless noted

| SMILES | Potency | viability change, negative = cytotoxic |
| --- | --- | --- |
| Nc1cc(Cl)ccc1Cl | inconclusive: 61.2 µM [rising, single point] | – |
| O=C(O)CCCCCCNC1c2ccccc2CCc2ccccc21 | inconclusive: 15.1 µM [cytotoxic, single point] | – |
| CC(Oc1ccc(Oc2ncc(C(F)(F)F)cc2Cl)cc1)C(=O)O (stereo not given) | inconclusive: 54.9 µM [cytotoxic, single point] | – |
| C1CCC2CCCCC2C1 (stereo not given) | inconclusive: 63.9 µM [rising, partial curve, poor fit] | – |
| C=CC[C@]1(O)CC[C@H]2[C@@H]3CCC4=CC(=O)CCC4=C3C=C[C@@]21C | inconclusive: 21.3 µM [cytotoxic, partial curve] | – |
| COc1nn(CSP(=S)(OC)OC)c(=O)s1 | inconclusive: 61.6 µM [cytotoxic, single point] | – |
| O=Cc1ccc(Cl)cc1Cl | – | inactive: -0.338% [at 78.9 µM] |
| O=C(CCl)Nc1ccccc1 | inconclusive: 54.9 µM [cytotoxic, single point] | – |

Test system: not listed separately
Test: qHTS assay for identifying genotoxic compounds that show differential cytotoxicity against isogenic chicken DT40 cell lines with known DNA damage response pathways - wild type cell line (AID 743012); further: nearly all actives have a fitted effect of over 60% in size
Conditions: DT40 wild type chicken cells viability, CellTiter-Glo, 40 h; activity change, negative = cytotoxicity: at 68.4 µM (top of the series) unless noted
Summary of the method: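 Quantitative HTS on parental DT40 cells: 40 h compound treatment at 37 C/5% CO2, with viability then determined by CellTiter-Glo luminescence. Values serve as the DNA repair-proficient reference for differential cytotoxicity.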

| SMILES | Potency | activity change, negative = cytotoxicity |
| --- | --- | --- |
| C[C@@H]1CC[C@H]2[C@@H](C)C(=O)O[C@@H]3O[C@@]4(C)CC[C@@H]1[C@]32OO4 | active: 0.422 µM | – |
| c1ccc2c(c1)sc1ccccc12 | inconclusive: 10.6 µM [cytotoxic, full curve] | – |
| CCSCc1ccccc1OC(=O)NC | inconclusive: 48.6 µM [cytotoxic, partial curve, poor fit] | – |
| CC(Oc1ccc(Oc2ncc(C(F)(F)F)cc2Cl)cc1)C(=O)O (stereo not given) | inconclusive: 68.6 µM [cytotoxic, single point] | – |
| CCCCC(CC)COC(=O)OOC(C)(C)C (stereo not given) | inconclusive: 48.6 µM [rising, partial curve, poor fit] | – |
| COC(C)(C)CCCC(C)C/C=C/C(C)=C/C(=O)OC(C)C (stereo not given) | active: 29.8 µM | – |
| CCOCCOC(C)=O | inconclusive: 0.486 µM [rising, full curve] | – |
| CN(C)C(=O)Nc1ccc(Cl)cc1 | inconclusive: 77 µM [cytotoxic, single point] | – |
| Oc1ccccc1Cl | inactive | – |
| CCC(COC(=O)c1cc(OC)c(OC)c(OC)c1)(c1ccccc1)N(C)C (stereo not given) | active: 5.96 µM | – |
| FC(F)(F)c1cccc(C2=CCN(CCc3ccc4ccccc4c3)CC2)c1 | inconclusive: 29.8 µM [cytotoxic] | – |
| NP(N)(=O)NC(=O)c1ccc(F)cc1 | – | inactive: 4.92% |
| O=NN1CCCC1 | inconclusive: 14.3 µM [rising, full curve, poor fit] | – |
| Cc1cc(C(F)(C(F)(F)F)C(F)(F)F)ccc1NC(=O)c1cccc(I)c1C(=O)NC(C)(C)CS(C)(=O)=O | inconclusive: 48.8 µM [cytotoxic, single point] | – |
| CCCCOCC1CO1 (stereo not given) | inactive | – |
| CN1[C@@H]2CC[C@H]1CC(OC(=O)c1cc(Cl)cc(Cl)c1)C2 (stereo not given in full) | active: 3.76 µM | – |
| O=C(O)C(Cl)Br (stereo not given) | – | inactive: 17.4% [at 95 µM] |
| O=NN(c1ccccc1)c1ccccc1 | inconclusive: 0.474 µM [rising, full curve, poor fit] | – |
| CCOP(=S)(OCC)Oc1ncn(-c2ccccc2)n1 | active: 61.1 µM | – |
| CNC(=O)Oc1cccc2c1OC(C)(C)C2 | inconclusive: 68.6 µM [cytotoxic, single point] | – |
| C=CCN=C=S | inconclusive: 78.7 µM [cytotoxic, single point] | – |
| Clc1ccc(Cl)cc1 | inconclusive: 27.3 µM [rising, partial curve, poor fit] | – |
| CC[C@H](C)[C@H]1O[C@]2(C=C[C@@H]1C)C[C@@H]1C[C@@H](C/C=C(\C)[C@@H](O[C@H]3C[C@H](OC)[C@@H](O[C@H]4C[C@H](OC)[C@@H](NC)[C@H](C)O4)[C@H](C)O3)[C@@H](C)/C=C/C=C3\CO[C@@H]4[C@H](O)C(C)=C[C@@H](C(=O)O1)[C@]34O)O2 | active: 0.686 µM | – |
